# Laboratory results from PubChem BioAssay AID651820 (National Center for Advancing Translational Sciences (NCATS), 2012).
# Out of some 340,000 compounds screened, about 12,000 (3.5%) were called active. Inconclusive means that the source gave no clear call. Such entries were picked first, then a sample of the others. The call rests on the fitted dose curve; in most records, active means well fitted inhibition curve with a large enough effect; inconclusive means small, poorly fitted or top-dose-only effect, or another doubt; inactive means no such curve, though single readings can be large or run the other way. No potency is given beside an inconclusive call; the fits are too rough.
# Experiment: qHTS Assay for Inhibitors of Hepatitis C Virus (HCV)
# Conditions: Huh7.5.1 HCVcc-Cre (HCVcc is cell-culture hepatitis C virus) infection, luciferase reporter, 44 h; activity change, negative = inhibition: at 41.8 µM (top of the series)
# Method in brief: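 Antiviral activity was scored by luciferase reporter output from cells infected with HCVcc-Cre (~0.5 moi) in presence of compound, 44 h infection period, cells seeded 1,000/well 4 h prior.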
# On the % scale 0 is the no-effect control and ±100 the full control effect; potency means the concentration at half of the fitted maximal effect; tags describe the fitted curve by direction and shape.
Compound,Potency,"activity change, negative = inhibition"
NCC(c1ccc(Cl)cc1Cl)c1c[nH]c2ccccc12 (stereo not given),"inconclusive [inhibitor, single point]",
COC(=O)c1ccc(C23CC4(C2)[C@H](CN(Cc2cccnc2)[C@@H]4c2ccccc2)C3c2ccc(Cl)nc2)cc1 (stereo not given in full),"inconclusive [inhibitor, partial curve]",
CC(=O)Nc1ccc(OCCCNC(=O)c2c(-c3ccccc3)noc2C)cc1,"inconclusive [inhibitor, single point]",
CC(C)c1ccc(S(=O)(=O)N2CCN(C(=O)c3ccc(N4CCCC4)c([N+](=O)[O-])c3)CC2)cc1,"inconclusive [inhibitor, partial curve]",
CC(C)NS(=O)(=O)c1ccc(NC(=O)NC2CCCCC2)cc1,,inactive: -1.18%
Cc1ccc(Cl)cc1NC(=S)N/N=C/c1cccc2ccccc12,"inconclusive [inhibitor, partial curve, poor fit]",
O=C(N[C@H]1C/C=C\C[C@@H](CC(=O)N(CCO)Cc2ccccc2)C(=O)N[C@H](Cc2c[nH]c3ccccc23)COC1=O)OCC1c2ccccc2-c2ccccc21,"inconclusive [inhibitor, partial curve]",
COC(=O)c1c(NC(=O)COC(=O)CCNS(=O)(=O)c2ccc(NC(C)=O)cc2)sc(C)c1C,"inconclusive [inhibitor, full curve]",
O=C1C(=C(O)c2ccccc2)C(=O)c2ccccc21,,inactive: -1.95%
COc1cccc(/C=N/NC(=O)c2cc3cc([N+](=O)[O-])ccc3s2)c1O,"inconclusive [inhibitor, full curve]",
Nc1ccc2nc(CCc3ccccc3)[nH]c2c1,"inconclusive [inhibitor, partial curve]",
CC(C)C(NC(=O)c1c(F)cccc1F)C(=O)NC1CC(C)(C)NC(C)(C)C1 (stereo not given),,inactive: 8.83%
CC(C)C(=O)NC(NC(=S)Nc1cccc2cccnc12)C(Cl)(Cl)Cl (stereo not given),"inconclusive [inhibitor, partial curve]",
COc1ccccc1NC(=O)CON=C(N)CC(=O)NC1CCCCC1,"inconclusive [inhibitor, single point]",
CSc1ccccc1NC(=O)CN(C)C(=O)c1ccc(NC(=O)c2cccs2)cc1,"inconclusive [inhibitor, partial curve]",
O=C(Nc1ccc(C(F)(F)F)cc1)N1CCN(c2ccnc3cc(Cl)ccc23)CC1,active: 8.91 µM,
N#Cc1sc2nc3c(c(-c4ccco4)c2c1N)CCCC3,active: 7.94 µM,
COc1ccc(NS(=O)(=O)c2cccc(C(=O)N3CCN(Cc4cc(OC)ccc4OC)CC3)c2)cc1,"inconclusive [inhibitor, partial curve]",
Cc1cc(OCC(=O)N2CCc3ccccc3C2)c(C)cc1Br,"inconclusive [inhibitor, single point]",
O=[N+]([O-])c1ccc(CNCc2cc(Cl)ccc2O)cc1,"inconclusive [inhibitor, single point]",

Compound,Potency,"activity change, negative = inhibition"
Cc1cc(C(=O)N2CCN(c3cccc(Cl)c3)CC2)c(C)o1,"inconclusive [inhibitor, single point]",
CCOC(=O)COc1ccccc1/C=N/Nc1nnc2c3ccccc3n(C)c2n1,,inactive: 13.4%
COc1ccc(NC(=O)N(CCc2ccccc2)Cc2cc3c(C)cc(C)cc3[nH]c2=O)cc1,"inconclusive [inhibitor, partial curve]",
CC(C)(C)NC(=O)CN(C(=O)Cn1nnc(-c2ccc(Cl)cc2)n1)C1CCN(Cc2ccccc2)CC1,"inconclusive [inhibitor, single point]",
CN(C)c1nc(N(C)C)nc(N(C#N)CCOc2ccccc2)n1,active: 11.2 µM,
COc1ccc(S(=O)(=O)N2CC(O)CC2C(=O)OCc2nc3sc(C)c(C)c3c(=O)[nH]2)cc1 (stereo not given),,inactive: 21.7%
O=C1CC[C@@H]2CC3(C[C@@H]4CCN1[C@H]24)Nc1cc([N+](=O)[O-])ccc1NC3=NC1CCCCC1 (stereo not given in full),,inactive: 22.9%
Cc1ccc2c(c1)c(-c1csc(N)n1)c(C)n2C,"inconclusive [inhibitor, partial curve, poor fit]",
Cc1ccc2[nH]cc(CCNC(=O)c3ccc4c(c3)OCO4)c2c1,,inconclusive: -32.7% [inhibitor]
C/C(=N\NC(=O)Cc1ccc(Cl)cc1)c1ccccc1O,"inconclusive [inhibitor, single point]",
c1ccc2c(c1)OCCOCCOCCOCCOc1ccccc1OCCOCCOCCO2,"inconclusive [inhibitor, single point]",
CC1Cc2ccccc2N1C(=O)CSc1ncc(-c2ccc(F)cc2)n1C (stereo not given),"inconclusive [inhibitor, single point]",
CCOC(=O)N1CCN(C(=O)CS(=O)(=O)c2cn(Cc3ccccc3C)c3ccccc23)CC1,"inconclusive [inhibitor, single point]",
c1ccc2c(Nc3ccc4c(c3)OCCO4)c3c(nc2c1)CCCC3,"inconclusive [inhibitor, single point]",
O=C(Nc1ccc(Cl)cc1)N1CCC(c2ccccc2)C1 (stereo not given),"inconclusive [inhibitor, single point]",
Cc1nc(NCCN2CCOCC2)c2nnn(Cc3ccccc3Cl)c2n1,"inconclusive [inhibitor, single point]",
CCOC(=O)c1ccc2c(c1)nc(COc1ccc(OC)cc1)n2CC,"inconclusive [inhibitor, single point]",
CC(C)NC(=O)c1ccc(COc2ccc(C(C)(C)C)cc2)o1,"inconclusive [inhibitor, full curve, poor fit]",
O=[N+]([O-])c1cccc(-c2ccc(/C=N/Nc3nc(N4CCCCC4)nc(N4CCCCC4)n3)o2)c1,active: 11.2 µM,
CCOC(=O)C1=C(c2ccccc2)NC(=S)NC1c1cccc([N+](=O)[O-])c1 (stereo not given),"inconclusive [inhibitor, single point]",
